In PubChem BioAssay AID485313 (National Center for Advancing Translational Sciences (NCATS), 2010):
In all, about 320,000 compounds went through this assay and about 7,600 (2.4%) were called active. The shares of active, inactive and inconclusive entries below differ from those in the screen. The call rests on the fitted dose curve; in most records, active means well fitted activation curve with a large enough effect; inconclusive means small, poorly fitted or top-dose-only effect; inactive means no such curve, though single readings can be large or run the other way. Potencies of inconclusive entries are left out as doubtful fits.

Assay: qHTS Assay for NPC1 Promoter Activators; further: nearly all actives have a fitted effect of over 60% in size;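 on activation: reporter is driven by a mutant NPC1 promoter; % of control where 0% means no effect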
Conditions: Huh7 NPC1 promoter luciferase reporter, 24 h; series mostly up to 9.22 µM; activation: at the top concentration
How it was run: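 Cells: Huh7 expressing luciferase under the NPC1 promoter, 1500/well. Seeded 2 h, compound added, incubated 24 h at 37 °C. Luciferase reagent, 10 min ambient, then luminescence.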
Potency means the concentration at half of the fitted maximal effect; tags describe the fitted curve by direction and shape.

| Compound | Potency | activation |
| --- | --- | --- |
| CN(C)C(CNC(=O)C1CCN(C(=O)/C=C/c2ccccc2)CC1)c1ccccc1 (stereo not drawn) | inconclusive [activator, single point] | – |
| C=CCN(C(=O)CCC(=O)Nc1cc(C)on1)C(C(=O)NC1CCCC1)c1ccc(OC)cc1OC (stereo not drawn) | inconclusive [activator, single point] | – |
| Cc1ccccc1/C(N)=N/OC(=O)c1ccc(F)cc1 | inconclusive [activator, single point] | – |
| Cc1cc(C(=O)Nc2nnc(-c3ccccc3)s2)no1 | – | inactive: 26.1% |
| Cc1cc(-c2nc(-c3ccncc3)no2)ccc1[N+](=O)[O-] | active: 2.24 µM | – |
| CCOC(=O)c1cnc(-n2nc(C)cc2C)nc1Nc1ccc(N(C)C)cc1 | – | inactive: -0.0493% |
| COc1ccccc1NC(=O)C1=C(C)NC(=O)NC1c1cccs1 (stereo not drawn) | – | inactive: -3.72% |
| COc1ccc(C(=O)Nc2nc3cc(OC)c(OC)cc3c(=O)[nH]2)cc1 | – | inactive: -2.13% |
| Cc1cc(Cl)n2ncc(-c3ccccc3)c2n1 | – | inactive: 25% |
| COC(=O)Cc1c(C)c2ccc(OCC(C)=O)c(C)c2oc1=O | inconclusive [activator, partial curve] | – |
| Brc1ccc(/C=N/Nc2nc3ccccc3o2)cc1 | active: 1.58 µM | – |
| Cc1cccc(Nc2nc(-c3ccc4c(c3)OCCO4)cs2)c1 | active: 2 µM | – |
| O=C(Nc1ccc(Cl)cc1)c1ccc(OCC2CCCO2)cc1 (stereo not drawn) | inconclusive [activator, partial curve] | – |
| Nc1ccc(N=Nc2ccc(N)cc2)cc1 | inconclusive [activator, full curve] | – |
| COc1cccc(/C=N/N=C(\N)c2nonc2N)c1O | inconclusive [activator, partial curve] | – |
| CCCCn1nc(NC(=O)COC)c2cc3cc(OC)ccc3nc21 | inconclusive [activator, single point] | – |
| O=C(Nc1nnc(-c2ccccc2F)s1)C1CCCO1 (stereo not drawn) | active: 3.55 µM | – |
| CC(C)c1ccc(/C=C/C(=O)N2CCOCC2)cc1 | active: 3.16 µM | – |
| O=C(Nc1nccs1)C(=O)c1c[nH]c2ccccc12 | inconclusive [activator, single point] | – |
| Cc1ccccc1Cn1cc(NC(=O)c2cc(C3CC3)on2)cn1 | inconclusive [activator, partial curve] | – |
| O=C(N/N=C/c1c[nH]c2ccccc12)c1cccc(O)c1 | – | inactive: -0.289% |
| CCCCNc1c(-c2ccc(SC(C)CC)cc2)nc2ccccn12 (stereo not drawn) | active: 3.55 µM | – |
| COc1cccc(NC(=O)c2ccc(OC(F)(F)F)cc2)c1 | active: 3.98 µM | – |
| COCCNC(=O)CN(Cc1cccs1)C(=O)CCC(=O)Nc1nccs1 | – | inactive: -3.26% |
| Cc1cc(-c2n[nH]c(=S)o2)c(C)n1-c1ccccc1 | inconclusive [activator, partial curve, poor fit] | – |
| Cc1sc2ncnc(N3CCC(C(=O)Nc4ccc(Br)cc4Br)CC3)c2c1C | – | inactive: -4.87% |
| CCN(CC)CCNC(=O)c1ccc(NC(=O)c2ccc(Cl)c(S(=O)(=O)Nc3ccccc3OC)c2)cc1 | – | inactive: 0.546% |

| Compound | Potency | activation |
| --- | --- | --- |
| NC(=O)c1sc2nc(-c3ccco3)ccc2c1N | inconclusive [activator, single point] | – |
| CN1CCN(C(=O)c2ccc(Cn3cc(Cl)cn3)o2)CC1 | – | inactive: 2.16% |
| Nc1cccn2c(-c3ccc(Cl)cc3)cnc12 | inconclusive [activator, single point] | – |
| O=C(Nc1ccc(Cl)cc1)c1ccc(OC2CSC2)cc1 | inconclusive [activator, partial curve] | – |
| CC(C)(C)c1ccc(C(=O)N2CCCC2)s1 | – | inactive: -6.95% |
| O=C(NC1=NCCS1)c1ccc(OCC2CCCO2)cc1 (stereo not drawn) | active: 0.398 µM | – |
| Cc1cccc(-c2nc(=S)c3c(o2)CCCC3)c1 | active: 1.41 µM | – |
| CCCCc1nc2cc(C(=O)N(C)C3CCOCC3)ccc2o1 | inconclusive [activator, single point] | – |
| CC(C)Oc1cccc(C(=O)NC(=S)Nc2cccnc2)c1 | inconclusive [activator, single point] | – |
| COc1ccc(-c2cc(N)n(S(=O)(=O)c3ccc(F)cc3)n2)cc1OC | – | inactive: -0.111% |
| O=C(O)CCc1ccc(-c2cccs2)n1Cc1ccco1 | – | inactive: -3.71% |
| NC(=O)c1ccccc1NC(=O)c1ccc2ccccc2c1 | active: 0.891 µM | – |
| O=C(Nc1nnc(C2CC2)s1)c1ccccn1 | active: 1.12 µM | – |
| O=c1cc(-c2ccccc2)oc2ccccc12 | inconclusive [activator, single point] | – |
| Nc1ccccc1C(=O)N1CCc2ccccc21 | inconclusive [activator, partial curve] | – |
| COc1ccc(Nc2nccc3c2nnn3C)cc1 | active: 1.26 µM | – |
| Oc1cccc(/C=N/c2c(-c3ccco3)nc3ccccn23)c1 | inconclusive [activator, partial curve] | – |
| Cc1ccc(S(=O)(=O)N/N=c2\oc3ccccc3cc2C(=O)Nc2cccc(C)c2)cc1 | – | inactive: -1.11% |
| COc1ccc(Nc2nc(-c3sc(N)nc3C)cs2)cc1 | inconclusive [activator, partial curve] | – |
| O=C(NCC(=O)N(Cc1cccs1)C(C(=O)NC1CCCCC1)c1ccco1)c1ccco1 (stereo not drawn) | – | inactive: -4.01% |
| CC(C)OC(=O)Nc1ccc2c(c1)N(C(=O)N1CCN(C)CC1)c1ccccc1CC2 | inconclusive [activator, partial curve] | – |
| COc1ccc(C2=NOC(C(=O)NCC(C)C)C2)cc1 (stereo not drawn) | inconclusive [activator, partial curve] | – |
| CN(CCc1ccccn1)C(=O)CCC1CCCN(C(=O)c2c3c(nn2C)CCCC3)C1 (stereo not drawn) | – | inactive: -7.03% |
| O=C(NC1CCCC1)c1cc(-c2ccccc2)on1 | active: 1.26 µM | – |
| CCCN(CCC)CCNC(=O)CCC(=O)Nc1ccc2nc(N3CCOCC3)cc(C)c2c1 | inconclusive [activator, partial curve] | – |
| COc1ccc(C(=O)CNc2cccc(F)c2)cc1 | inconclusive [activator, single point] | – |
